Experimental data: the supplement of paper PMC6089552
In all, about 3,200 compounds went through this assay and about 300 (9.4%) showed activity. This is a selection; strong and weak results do not stand in their true shares.

Tested on: A673/TR/shEF
Assay: cell viability (LOESS-normalised, relative to median of negative controls) (log2 ratio); higher = more viable cells (less compound effect), active = hit call of the paper (over 3 MAD below the median)
Conditions: treatment time: 72 h
Procedure, shortened: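 A673/TR/shEF Ewing sarcoma cells (1,500 per well, 384-well plates) were grown with or without doxycycline to induce EWS-FLI1 shRNA knockdown, starting 24 h before compounds. Library compounds at two or more concentrations, with DMSO controls, were added for three days. Cell viability was read by CellTiter-Glo luminescence on an Envision reader, then LOESS-corrected per plate, divided by the median of negative controls and log2-transformed. Hits were wells at least three median absolute deviations from the median of all screened wells.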

[1] = 0.103 µM, library screen: screen3, EWS-FLI1 expression: high (no doxycycline)
[2] = 0.103 µM, library screen: screen3, EWS-FLI1 expression: low (doxycycline-induced shRNA knockdown)
[3] = 0.25 µM, library screen: screen1, EWS-FLI1 expression: high (no doxycycline)
[4] = 0.25 µM, library screen: screen1, EWS-FLI1 expression: low (doxycycline-induced shRNA knockdown)
[5] = 0.308 µM, library screen: screen3, EWS-FLI1 expression: high (no doxycycline)
[6] = 0.308 µM, library screen: screen3, EWS-FLI1 expression: low (doxycycline-induced shRNA knockdown)
[7] = 0.926 µM, library screen: screen3, EWS-FLI1 expression: high (no doxycycline)
[8] = 0.926 µM, library screen: screen3, EWS-FLI1 expression: low (doxycycline-induced shRNA knockdown)
[9] = 2.5 µM, library screen: screen1, EWS-FLI1 expression: high (no doxycycline)
[10] = 2.5 µM, library screen: screen1, EWS-FLI1 expression: low (doxycycline-induced shRNA knockdown)
[11] = 2.8 µM, library screen: screen3, EWS-FLI1 expression: high (no doxycycline)
[12] = 2.8 µM, library screen: screen3, EWS-FLI1 expression: low (doxycycline-induced shRNA knockdown)
[13] = 8.3 µM, library screen: screen3, EWS-FLI1 expression: high (no doxycycline)
[14] = 8.3 µM, library screen: screen3, EWS-FLI1 expression: low (doxycycline-induced shRNA knockdown)
[15] = 25 µM, library screen: screen3, EWS-FLI1 expression: high (no doxycycline)
[16] = 25 µM, library screen: screen3, EWS-FLI1 expression: low (doxycycline-induced shRNA knockdown)
[17] = 0.25 µM, library screen: screen2, EWS-FLI1 expression: high (no doxycycline)
[18] = 0.25 µM, library screen: screen2, EWS-FLI1 expression: low (doxycycline-induced shRNA knockdown)
[19] = 2.5 µM, library screen: screen2, EWS-FLI1 expression: high (no doxycycline)
[20] = 2.5 µM, library screen: screen2, EWS-FLI1 expression: low (doxycycline-induced shRNA knockdown)

Measured: cell viability (log2)

COC(=O)[C@H](c1ccccc1Cl)N1CCc2sccc2C1
inactive: [1] -0.0292 | [2] -0.0575 | [3] 0.0125 | [4] 0.0195 | [5] 0.0719 | [6] 0.00209 | [7] 0.00906 | [8] 0.116 | [9] 0.0801 | [10] -0.0426 | [11] 0.144 | [12] 0.0581 | [13] -0.00472 | [14] 0.0633 | [15] 0.0377 | [16] 0.114

C[C@]12CCC(=O)C=C1CC[C@@H]1[C@@H]2C(=O)C[C@@]2(C)[C@H]1CC[C@]2(O)C(=O)CO
inactive: [3] 0.0836 | [4] 0.0764 | [17] 0.16 | [18] 0.0585 | [9] 0.142 | [10] 0.067 | [19] 0.112 | [20] 0.0827

COCCCC/C(=N\OCCN)c1ccc(C(F)(F)F)cc1
inactive: [17] 0.0374 | [18] -0.0394 | [19] 0.0814 | [20] 0.00912

C[C@@H]1CC[C@H]2C(C)(C)[C@H]3C[C@@]12CC[C@@]3(C)O
inactive: [3] -0.00565 | [4] -0.0471 | [9] -0.0433 | [10] 0.0591

Cc1c(Cl)cccc1Nc1ccccc1C(=O)O
inactive: [3] 0.0842 | [4] -0.0167 | [9] 0.146 | [10] -0.0951

COc1cc(C)c(C(=O)O)c(O)c1
inactive: [3] 0.0224 | [4] 0.0265 | [9] 0.0516 | [10] -0.0134

Cc1ccc(N(CC2=NCCN2)c2cccc(O)c2)cc1
inactive: [3] 0.0993 | [4] 0.033 | [17] 0.301 | [18] 0.0826 | [9] 0.164 | [10] 0.142 | [19] 0.319 | [20] 0.168

CNC(=O)[C@H]1O[C@@H](n2cnc3c(N)ncnc32)[C@H](O)[C@@H]1O
inactive: [17] 0.133 | [18] 0.153 | [19] 0.0199 | [20] 0.101

CCc1ccc(CCOc2ccc(CC3SC(=O)NC3=O)cc2)nc1 (stereo unspecified)
inactive: [3] -0.0419 | [4] 0.0243 | [9] 0.0652 | [10] 0.0733

c1ccc(CC2=NCCN2)cc1
inactive: [3] 0.0668 | [4] 0.137 | [9] 0.131 | [10] 0.191

NCCCCC(=O)O
active: [17] -0.118

COc1c(O)cc2occ(-c3ccc(O)cc3)c(=O)c2c1O
inactive: [3] 0.15 | [4] 0.0261 | [9] 0.0979 | [10] 0.0895

OCCN1CCN(CCCN2c3ccccc3Sc3ccc(C(F)(F)F)cc32)CC1
inactive: [3] 0.123 | [4] -0.116 | [17] 0.0872 | [18] 0.0735 | [9] 0.0717 | [10] 0.0734 | [19] 0.0281 | [20] 0.0587

CC(C)(Oc1ccc(CCNC(=O)c2ccc(Cl)cc2)cc1)C(=O)O
inactive: [3] 0.103 | [4] 0.0276 | [9] 0.165 | [10] 0.0799

CC1=CC(=O)[C@H]2C(C)(C)CCC[C@]2(C)[C@@]1(O)CCc1ccoc1
inactive: [3] 0.0791 | [4] 0.0513 | [9] 0.195 | [10] 0.0373

O=C(c1cc(Cc2n[nH]c(=O)c3ccccc23)ccc1F)N1CCN(C(=O)C2CC2)CC1
active: [15] -0.244 | [16] -0.143
inactive: [1] -0.00614 | [2] 0.0146 | [5] -0.0732 | [6] -0.0144 | [7] 0.00937 | [8] 0.0508 | [11] -0.137 | [12] 0.0104 | [13] -0.158 | [14] -0.00135

O=C1c2ccccc2C(=O)C1c1ccccc1
inactive: [3] 0.00829 | [4] 0.109 | [9] 0.0875 | [10] 0.204

CC(C)N=C(N)/N=C(\N)Nc1ccc(Cl)cc1
inactive: [3] 0.128 | [4] 0.0586 | [9] 0.107 | [10] 0.132

Clc1ccc2c(c1)C(N1CCNCC1)=Nc1ccccc1O2
inactive: [3] 0.113 | [4] 0.0477 | [17] 0.153 | [18] 0.0853 | [9] 0.0833 | [10] -0.127 | [19] 0.0223 | [20] 0.0703

O=C(O)CCc1nc(-c2ccccc2)c(-c2ccccc2)o1
inactive: [17] 0.166 | [18] 0.0807 | [19] 0.142 | [20] 0.114

CC(=O)O[C@H]1CC2(C)[C@@H](C[C@@H](O)[C@H]3[C@@]4(C)CC[C@@H](O)[C@@H](C)[C@@H]4CC[C@@]32C)/C1=C(/CCC=C(C)C)C(=O)O (stereo partly specified)
inactive: [17] 0.0714 | [18] 0.0604 | [19] 0.159 | [20] 0.0152

CC(C(=O)O)c1ccc(CC2CCCC2=O)cc1 (stereo unspecified)
inactive: [17] 0.142 | [18] 0.0493 | [19] 0.161 | [20] 0.0774
